The other results are listed elsewhere or left out.
test system: T1, C. trachomatis L2/434/Bu expressing GFP (CTL2-GFP); design: species or system HeLa; C. trachomatis total inclusion area by high-content imaging, normalised to DMSO; details: total inclusion area; 28.5 h, 10 µM; inhibitor
T1 construct: L2/434/Bu GFP intracellular growth in HeLa cells
Summary of the method: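 Post-fluorescence-read fixation, DNA staining with Hoechst and high-content imaging; GFP inclusion area and number per well, and nuclei counts, used as proxies for bacterial growth and host viability.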

Row | SMILES | % of control remaining
1 | O=C(C1CC1)N1CCC2(CC1)Nc1ccccc1-n1cccc12 [CBK284011] | 92.134
2 | Cc1csc2ncc(C(=O)Nc3ccc(F)c(Cl)c3)c(=O)n12 [CBK287460] | 76.0712
3 | Cc1nc2ccc(C(=O)N3CCN(C(=O)c4ccc(Cl)cc4)CC3)cc2nc1C [CBK296647] | 107.706
4 | COc1ccccc1C(NC(=O)C1CCN(CCn2cnc3c2c(=O)n(C)c(=O)n3C)CC1)c1ccccn1 (stereo not shown) [CBK147939] | 99.6024
5 | CCOc1cc(CNCc2ccc(C(=O)O)cc2)ccc1OC [CBK270029C] | 92.7918
6 | Cc1nc(NC(=O)c2c(F)cccc2F)sc1C [CBK300495] | 101.649
7 | COc1cccc2c1ncc1c(=O)nc(N)sc12 [CBK291241] | 106.749
8 | C=CCC1(CC=C)CCN1C(=O)Cc1c(C)nc(SC)[nH]c1=O [CBK282661] | 122.537
9 | Cc1nc(N/N=C/c2ccc3c(c2)OCO3)sc1C [CBK263098] | 87.5603
10 | O=C(CSc1ncn(-c2ccccc2)n1)Nc1cc(Cl)cc(Cl)c1 [CBK268261] | 101.497
11 | O=C(Cc1ccc([N+](=O)[O-])cc1)Nc1ccc(O)cc1C(=O)O [CBK265977] | 126.849
12 | O=S(=O)(NC1c2cccc3cccc(c23)C1Sc1ccccn1)c1ccc(Cl)cc1 (stereo not shown) [CBK264073] | 110.786
13 | O=C(c1cnn(-c2ccc(Cl)cc2)c1C(F)(F)F)N1CCN(c2ncccn2)CC1 [CBK107448] | 117.77
14 | O=C(O)CCC(=O)NCCc1ccc(Cl)cc1 [CBK287165] | 103.322
15 | O=C(c1ccccc1F)N1CC2CCCC(C1)C2N1CCOCC1 (stereo not shown) [CBK285262] | 87.2715
16 | Cc1cn([C@H]2C[C@@H](O)[C@@H](CO)O2)c(=O)n(CCC#N)c1=O [CBK201322] | 73.6167
17 | Cc1cc(CN2CC3CCCN3C[C@@H]2C)c(C)n1CC1CCCO1 (stereo partly shown) [CBK285419] | 101.927
18 | CCC(Sc1nccn1C)C(=O)Nc1ccc(S(N)(=O)=O)cc1 (stereo not shown) [CBK058413] | 90.8686
19 | COc1c(Br)cc2c(cc(C)n2-c2ccccc2)c1OCC(O)CNC(C)C (stereo not shown) [CBK263516] | 2.0554
20 | O=C(Nc1ccc(N2CCOCC2)c2nonc12)c1cc(-c2cccnc2)nc2ccc(Cl)cc12 [CBK267724] | 95.8808
21 | Fc1ccccc1-c1nc2cnccn2c1NCc1cccs1 [CBK282332] | 108.479
22 | COc1ccc(-c2nc3cc(NC(=O)C(c4ccccc4)c4ccccc4)ccc3o2)cc1 [CBK264980] | 109.138
23 | Cc1ccc(C)c(NC(=O)Cc2nc(CN3CCNC(=O)C3)cs2)c1 [CBK305071] | 127.705
24 | CC1=NN(C(=O)C2CC2)C(=O)C1Cc1ccc(F)cc1 (stereo not shown) [CBK083561] | 97.1773
25 | Cn1cc(C(=O)NC(Cc2cccs2)c2ccccn2)ccc1=O (stereo not shown) [CBK285209] | 77.1834
26 | COc1cccc(/C=C2/SC(=S)NC2=O)c1OCCCOc1ccc(C)cc1C [CBK264441] | 113.648
27 | CC(C)Nc1cc(OCc2ccc(-c3ccccc3)cc2)ncn1 [CBK115658] | 80.1343

Row | SMILES | % of control remaining
28 | COC(=O)c1ccc(-c2ccc(F)cc2OC)nc1 [CBK149230] | 99.0191
29 | N#Cc1c(C(F)(F)F)cc(-c2cccs2)nc1SCC(O)CN1CCSCC1 (stereo not shown) [CBK265947] | 102.122
30 | COC(=O)c1cn([C@H]2CO[C@H]3[C@@H]2OC[C@@H]3NC(=O)Nc2cccc(C(F)(F)F)c2)nn1 [CBK289501] | 95.2856
31 | O=c1[nH]c(=O)c2cc(S(=O)(=O)Nc3ccccc3Cc3ccccc3)ccc2[nH]1 [CBK286377] | 93.5016
32 | O=C(CN1CCCCCC1=O)Nc1nc(-c2ccccc2F)cs1 [CBK281408] | 66.1719
33 | COc1ccc(OC(=O)c2csc(Cc3c(Cl)cccc3Cl)n2)cc1 [CBK083573] | 84.7528
34 | CC(C)NC(=O)[C@@H](C)C1CC[C@@]2(C)CC[C@H](NC(=O)C3CC3)[C@@H](C)[C@@H]2[C@H]1O (stereo partly shown) [CBK289444] | 123.548
35 | Cc1cccn2c(=O)cc(CN3CCC(c4ccn[nH]4)CC3)nc12 [CBK305951] | 65.0471
36 | Cc1cc(N2CCOC(c3cccs3)C2)ccn1 (stereo not shown) [CBK304691] | 77.7496
37 | O=C1CCc2cc(S(=O)(=O)Nc3cccc(-c4ccc(F)cc4)c3)ccc2N1 [CBK286371] | 95.178
38 | FC(F)(F)c1nc2ccccc2nc1Sc1ccncc1 [CBK093773] | 85.8504
39 | CCOC(=O)c1sc(-c2ccccc2)nc1O [CBK074298] | 102.517
40 | CN1CCC(N(C)C(=O)NC(c2ccccc2)c2ccccc2)C1 (stereo not shown) [CBK156000] | 90.3803
41 | CN1C=NC2C1C(=O)N(CCn1c(=O)c3c(ncn3C)n(C)c1=O)C(=O)N2C (stereo not shown) [CBK268678] | 104.653
42 | Cc1[nH]c(=O)[nH]c(=S)c1C(=O)Nc1ccc2[nH]c(C(F)(F)F)nc2c1 [CBK115494] | 76.4537
43 | CCOC(=O)CCNC(=O)N(CC)Cc1ccccc1 [CBK155228] | 91.42
44 | COC(=O)c1cccc(N(C)S(=O)(=O)c2sc3ccc(Cl)cc3c2C)c1 [CBK160390] | 72.1568
45 | CCc1c(C)nc2c(N3CCOC3=O)cccc2c1SCCC(=O)O [CBK159595T] | 106.657
46 | Cc1cccc2c3c([nH]c12)C1(CCN(CC2CC2)C1)NCC3 (stereo not shown) [CBK039520] | 87.2732
47 | CSCCN1CCC(Oc2nccnc2OCc2cccnc2)CC1 [CBK083173] | 91.6207
48 | CCOC(=O)c1[nH]c(C)c(/C=C/C2=CCN(C)CC2)c1C [CBK283761] | 122.488
49 | CCCC(=O)Nc1ccc(C(=O)O)cc1NC(=O)CCC [CBK286939] | 103.155
50 | CN1CCN(c2ccccc2NC(=S)NC(=O)c2ccco2)CC1 [CBK267909] | 83.9687
51 | CC(=O)c1ccc(CN2CCCN(S(=O)(=O)c3ccc(C(=O)c4ccccc4)cc3)CC2)cc1 [CBK062764] | 69.2456
52 | CN(C(=O)C1CCc2nn(C)c(=O)n2C1)C1Cc2ccccc2C1 (stereo not shown) [CBK307108] | 100.055
53 | O=C(NCc1nnc(-c2cccs2)o1)C1(c2ccccc2F)CC1 [CBK284637] | 109.109
54 | O=[N+]([O-])c1ccccc1/C=C/CN1CCN(C/C=C/c2ccccc2)CC1 [CBK261864] | 93.3994

Row | SMILES | % of control remaining
55 | O=C(Cc1ccc(-c2ccccc2)cc1)N1CCc2nc3ccccc3c(=O)n2CC1 [CBK286312] | 94.0007
56 | CCn1cc(C(=O)NN)c(=O)c2cc(F)c(N3CCCCCC3)cc21 [CBK307145] | 83.4236
57 | CC(NC(=O)C1(Cn2ccnc2)CC1)c1cccnc1 (stereo not shown) [CBK306812] | 55.1999
58 | O=C(c1cccs1)N1C[C@@H]2C[C@H](C1)c1c(-c3cncnc3)ccc(=O)n1C2 [CBK289194] | 96.9992
59 | COc1c(C)cc(-c2[nH]c(C)nc2C)cc1C [CBK306941] | 47.7017
60 | COC(=O)Cc1ccc(NC(=S)Nc2ccc(N3CCOCC3)cc2)cc1 [CBK267211] | 112.889
61 | CC1CCN(c2ccc(C(C)NC(=O)Cn3cccn3)cc2)CC1 (stereo not shown) [CBK281725] | 103.76
62 | O=C(O)CSc1nnc(-c2ccncc2)n1-c1ccc(Cl)cc1 [CBK266686] | 83.9426
63 | O=S(=O)(c1ccc2nc(-c3ccccc3)c(-c3ccc(O)cc3)nc2c1)c1ccc2nc(-c3ccccc3)c(-c3ccc(O)cc3)nc2c1 [CBK261148] | 70.4511
64 | Cc1ccc2c(c1)C(C[C@H]1CN(C(=O)C3CCCC3)CC[C@H]1CC(=O)O)=NCC2 [CBK289163] | 134.023
65 | CC(=C\C(=O)O)/C(=C/c1ccc2ccccc2n1)C(=O)O [CBK278294N] | 99.0612
66 | Cn1cc(CCNC(=O)Nc2ccc(N3CCCC3)nc2)cn1 [CBK305659] | 76.256
67 | OCCN(CCO)c1cncc(-c2cccs2)n1 [CBK065766] | 122.455
68 | c1cncc(-c2nccnc2N2CCN(c3ccncc3)CC2)c1 [CBK036965] | 142.158
69 | Cc1cc(N2C(=O)c3ccc(Oc4ccc5c(c4)C(=O)N(c4cc(C)on4)C5=O)cc3C2=O)no1 [CBK266463] | 107.587
70 | O=C(NCCn1cccn1)N1CCCN(Cc2ccncc2)CC1 [CBK307129] | 65.0674
71 | O=C(Oc1ccccc1)c1cc(S(=O)(=O)N2CCOCC2)c(Cl)cc1Cl [CBK269656] | 89.3398
72 | COc1cccc(-c2ccc(NC(=O)CCC3C(=O)Nc4ccccc43)cc2)c1 (stereo not shown) [CBK285851] | 106.54
73 | Cc1nc(C2CCCN(C(=O)c3cscn3)C2)c2sccn12 (stereo not shown) [CBK282236] | 100.836
74 | C/C(=N/OCC(=O)N/N=C/c1sc2ccccc2c1O)c1ccccc1 [CBK262266] | 88.2599
75 | Cc1nnc(SCC(=O)NC(C)(C)C)n1NCc1cccc(Br)c1 [CBK266517] | 76.4728
76 | O=C(CSc1nnc(Nc2ccccc2)n1-c1ccccc1)Nc1ccc2c(c1)COC2=O [CBK268298] | 138.467
77 | CCOc1ccc2c(c1)-c1c(ssc1=S)C(C)(C)N2C(=O)CSc1nnc[nH]1 [CBK262680] | 76.213
78 | NC(=O)C1CCN(c2ncnc3c2oc2ccccc23)CC1 [CBK287789] | 100.014
79 | COc1cc(C(=O)N2CCC3(CC2)CC(=O)c2ccc(-c4ccccc4)cc2O3)cc(OC)c1C [CBK169037] | 117.698
